Test results taken from patent US20040110933A1.

Columns and labels:
[1] = target: biotinylated CD44Fc (human) (UniProt P16070); experiment: phage ELISA on b-CD44Fc, no competitor
[2] = target: biotinylated CD44Fc (human) (UniProt P16070); experiment: competition phage ELISA on b-CD44Fc, competitor S5 (450 ng) pre-incubated
[3] = target: human CD44 expressed on human cells (KG1a, SR91, HMEC, HUVEC, primary leukocytes) (human) (UniProt P16070); experiment: flow cytometry, KG1a-HA+ cells, Fab 20 µg/mL
[4] = target: human CD44 expressed on human cells (KG1a, SR91, HMEC, HUVEC, primary leukocytes) (human) (UniProt P16070); experiment: flow cytometry, KG1a-HA+ cells, Fab 100 µg/mL, anti-6His + GxM-FITC (background 6)
[5] = target: human CD44 expressed on human cells (KG1a, SR91, HMEC, HUVEC, primary leukocytes) (human) (UniProt P16070); experiment: displacement of FL-HA, KG1a-HA- cells, Fab 500 µg/mL
[6] = target: human CD44 expressed on human cells (KG1a, SR91, HMEC, HUVEC, primary leukocytes) (human) (UniProt P16070); experiment: flow cytometry, KG1a-HA- cells, Fab 1000 µg/mL, anti-6His + GxM-FITC (background 6)
[7] = target: human CD44 expressed on human cells (KG1a, SR91, HMEC, HUVEC, primary leukocytes) (human) (UniProt P16070); experiment: flow cytometry, KG1a-HA+ cells, Fab 10 µg/mL
[8] = target: human CD44 expressed on human cells (KG1a, SR91, HMEC, HUVEC, primary leukocytes) (human) (UniProt P16070); experiment: displacement of FL-HA, KG1a-HA- cells, Fab 1 mg/mL
[9] = target: human CD44 expressed on human cells (KG1a, SR91, HMEC, HUVEC, primary leukocytes) (human) (UniProt P16070); experiment: displacement of FL-HA, KG1a-HA- cells, Fab […]
[10] = target: human CD44 expressed on human cells (KG1a, SR91, HMEC, HUVEC, primary leukocytes) (human) (UniProt P16070); experiment: displacement of FL-HA from KG1a cells, Fab above 250 µg/mL
[11] = target: human CD44 expressed on human cells (KG1a, SR91, HMEC, HUVEC, primary leukocytes) (human) (UniProt P16070); experiment: flow cytometry, KG1a-HA- cells, Fab 50 µg/mL, anti-6His + GxM-FITC (background 6)
[12] = target: human CD44 expressed on human cells (KG1a, SR91, HMEC, HUVEC, primary leukocytes) (human) (UniProt P16070); experiment: FL-HA binding to cells in presence of Fab 50 µg/mL, flow cytometry; HA alone 161
[13] = target: human CD44 expressed on human cells (KG1a, SR91, HMEC, HUVEC, primary leukocytes) (human) (UniProt P16070); experiment: displacement of FL-HA, KG1a-HA+ cells, Fab 500 µg/mL
[14] = target: human CD44 expressed on human cells (KG1a, SR91, HMEC, HUVEC, primary leukocytes) (human) (UniProt P16070); experiment: flow cytometry, CD44+ cells, Fab 100 µg/mL, 9E10 + GxM FITC detection (background 29)
[15] = target: human CD44 expressed on human cells (KG1a, SR91, HMEC, HUVEC, primary leukocytes) (human) (UniProt P16070); experiment: flow cytometry, KG1a-HA+ cells, Fab […]
[16] = target: human CD44 expressed on human cells (KG1a, SR91, HMEC, HUVEC, primary leukocytes) (human) (UniProt P16070); experiment: flow cytometry, KG1a-HA- cells, Fab 250 µg/mL
[17] = target: human CD44 expressed on human cells (KG1a, SR91, HMEC, HUVEC, primary leukocytes) (human) (UniProt P16070); experiment: flow cytometry, SR91 cells, Fab 20 µg/mL
[18] = target: human CD44 expressed on human cells (KG1a, SR91, HMEC, HUVEC, primary leukocytes) (human) (UniProt P16070); experiment: flow cytometry, SR91 cells, Fab 10 µg/mL
[19] = target: human CD44 expressed on human cells (KG1a, SR91, HMEC, HUVEC, primary leukocytes) (human) (UniProt P16070); experiment: flow cytometry, KG1a-HA+ cells, Fab 1000 µg/mL, anti-6His + GxM-FITC (background 6)
[20] = target: human CD44 expressed on human cells (KG1a, SR91, HMEC, HUVEC, primary leukocytes) (human) (UniProt P16070); experiment: displacement of FL-HA, KG1a-HA+ cells, Fab 1 mg/mL
[21] = target: human CD44 expressed on human cells (KG1a, SR91, HMEC, HUVEC, primary leukocytes) (human) (UniProt P16070); experiment: flow cytometry, KG1a-HA- cells, Fab […]
[22] = target: human CD44 expressed on human cells (KG1a, SR91, HMEC, HUVEC, primary leukocytes) (human) (UniProt P16070); experiment: flow cytometry, KG1a-HA- cells, Fab 500 µg/mL
[23] = target: neuraminidase-treated (activated) human CD44-Fc (human) (UniProt P16070); experiment: BIACORE (SPR)
human CD44-Fc (human) = human CD44-Fc (human) (UniProt P16070); experiment: BIACORE (SPR)
[24] = target: human CD44 expressed on human cells (KG1a, SR91, HMEC, HUVEC, primary leukocytes) (human) (UniProt P16070); experiment: displacement of FL-HA, KG1a-HA- cells, Fab 250 µg/mL
[25] = target: human CD44 expressed on human cells (KG1a, SR91, HMEC, HUVEC, primary leukocytes) (human) (UniProt P16070); experiment: flow cytometry, CD44+ cells, Fab 50 µg/mL, 9E10 + GxM FITC detection (background 29)
[26] = target: human CD44 expressed on human cells (KG1a, SR91, HMEC, HUVEC, primary leukocytes) (human) (UniProt P16070); experiment: flow cytometry, CD44+ cells, Fab 25 µg/mL, 9E10 + GxM FITC detection (background 29)
[27] = target: human CD44 expressed on human cells (KG1a, SR91, HMEC, HUVEC, primary leukocytes) (human) (UniProt P16070); experiment: FL-HA binding to cells in presence of Fab 100 µg/mL, flow cytometry; HA alone 161
[28] = target: human CD44 expressed on human cells (KG1a, SR91, HMEC, HUVEC, primary leukocytes) (human) (UniProt P16070); experiment: flow cytometry, KG1a-HA+ cells, Fab 250 µg/mL
[29] = target: human CD44 expressed on human cells (KG1a, SR91, HMEC, HUVEC, primary leukocytes) (human) (UniProt P16070); experiment: flow cytometry, KG1a-HA+ cells, Fab 1 mg/mL
[30] = target: human CD44 expressed on human cells (KG1a, SR91, HMEC, HUVEC, primary leukocytes) (human) (UniProt P16070); experiment: flow cytometry, KG1a-HA+ cells, Fab 50 µg/mL, anti-6His + GxM-FITC (background 6)
[31] = target: human CD44 expressed on human cells (KG1a, SR91, HMEC, HUVEC, primary leukocytes) (human) (UniProt P16070); experiment: flow cytometry, KG1a-HA+ cells, Fab 500 µg/mL
[32] = target: human CD44 expressed on human cells (KG1a, SR91, HMEC, HUVEC, primary leukocytes) (human) (UniProt P16070); experiment: flow cytometry on KG1a cells, Fab at 0.1-1 µg/mL
[33] = target: human CD44 expressed on human cells (KG1a, SR91, HMEC, HUVEC, primary leukocytes) (human) (UniProt P16070); experiment: displacement of FL-HA, KG1a-HA+ cells, Fab 250 µg/mL
[34] = target: human CD44 expressed on human cells (KG1a, SR91, HMEC, HUVEC, primary leukocytes) (human) (UniProt P16070); experiment: flow cytometry, KG1a-HA+ cells, Fab 20 µg/mL, anti-6His + GxM-FITC (background 6)
[35] = target: human CD44 expressed on human cells (KG1a, SR91, HMEC, HUVEC, primary leukocytes) (human) (UniProt P16070); experiment: flow cytometry, KG1a-HA- cells, Fab 100 µg/mL, anti-6His + GxM-FITC (background 6)
[36] = target: human CD44 expressed on human cells (KG1a, SR91, HMEC, HUVEC, primary leukocytes) (human) (UniProt P16070); experiment: displacement of FL-HA, KG1a-HA+ cells, Fab […]
[37] = target: human CD44 expressed on human cells (KG1a, SR91, HMEC, HUVEC, primary leukocytes) (human) (UniProt P16070); experiment: displacement of FL-HA from KG1a cells, flow cytometry, Fab at 0.1-1 µg/mL
[38] = target: human CD44 expressed on human cells (KG1a, SR91, HMEC, HUVEC, primary leukocytes) (human) (UniProt P16070); experiment: FL-HA binding to cells in presence of Fab 25 µg/mL, flow cytometry; HA alone 161
[39] = target: human CD44 expressed on human cells (KG1a, SR91, HMEC, HUVEC, primary leukocytes) (human) (UniProt P16070); experiment: flow cytometry, KG1a-HA- cells, Fab 1 mg/mL
[40] = target: human CD44 expressed on human cells (KG1a, SR91, HMEC, HUVEC, primary leukocytes) (human) (UniProt P16070); experiment: flow cytometry, KG1a-HA- cells, Fab 20 µg/mL, anti-6His + GxM-FITC (background 6)
[41] = target: human CD44 expressed on human cells (KG1a, SR91, HMEC, HUVEC, primary leukocytes) (human) (UniProt P16070); experiment: flow cytometry titration, binding to CD44 on KG1a cells
[42] = target: human CD44 expressed on human cells (KG1a, SR91, HMEC, HUVEC, primary leukocytes) (human) (UniProt P16070); experiment: 50% HA blocking conc., HA-FITC on KG1a cells, flow cytometry
[43] = target: human CD44 expressed on human cells (KG1a, SR91, HMEC, HUVEC, primary leukocytes) (human) (UniProt P16070); experiment: 50% CD44 binding conc., flow cytometry titration on KG1a cells
[44] = target: human CD44 expressed on human cells (KG1a, SR91, HMEC, HUVEC, primary leukocytes) (human) (UniProt P16070); experiment: estimated from the 50% binding concentration on KG1a cells, flow cytometry
[45] = target: human CD44 expressed on human cells (KG1a, SR91, HMEC, HUVEC, primary leukocytes) (human) (UniProt P16070); experiment: blocking of HA-FITC binding to CD44 on KG1a cells, flow cytometry

B1: BE-B12 (Fab displayed on phage) (Fab, V domains shown)
VH: EVQLLESGGGLVQPGGSLRLSCAASGFTFSKYTMWWVRQAPGKGLEWVSSIWSSGGFTRYADSVKGRFTISRDNSKNTLYLQMNSLRAEDTAVYYCAGRSGSYPADIWGQGTMVTVSS
VL: [about 100 residues left out here]QTGYTFGQGTKLEIK
For B1, the phage ELISA signal (column CD44) [1] was 0.785 and the phage ELISA signal (column CD44 + S5) [2] was 0.303.

B2: HAE-H10 Fab (Fab, V domains shown)
VH: EVQLLESGGGLVQPGGSLRLSCAASGFTFSPYLMSWVRQAPGKGLEWVSSIYSSGGLTDYADSVKGRFTISRDNSKNTLYLQMNSLRAEDTAVHYCARDGYYDSSGYEGFDYWGQGTLVTVSS
VL: [about 100 residues left out here]FGQGTKLEIK
B2 showed an FL counts (arbitrary units) [3] of 3.46, a fluorescence (Fab Binding) [4] of 39 and a % inhibition of HA binding [5] of 54.4%. The fluorescence (Fab Binding) [6] was 132, the FL counts (arbitrary units) [7] was 2.88 and the % inhibition of HA binding [8] was 47.7%. It also gave a % inhibition of HA binding [9] of 91%, a % inhibition of HA binding [10] of 60% and a fluorescence (Fab Binding) [11] of 12. For the same binder, the FL-HA signal remaining with antibody (HA Blocking) [12] was 185, the % inhibition of HA binding [13] was 57% and the FL counts (arbitrary units) [14] was 32. For the same binder, the fluorescence (Binding Titration) (arbitrary fluorescence units) [15] was 65, the fluorescence (Binding Titration) (arbitrary fluorescence units) [16] was 74 and the FL counts (arbitrary units) [17] was 2.42. It also gave an FL counts (arbitrary units) [18] of 2.2, a fluorescence (Fab Binding) [19] of 108 and a % inhibition of HA binding [20] of 65.4%. For the same binder, the fluorescence (Binding Titration) (arbitrary fluorescence units) [21] was 46, the fluorescence (Binding Titration) (arbitrary fluorescence units) [22] was 108 and the Kd [23] was 388 nM. It also gave a Kd (human CD44-Fc (human)) of 487 nM, a % inhibition of HA binding [24] of 61.1% and an FL counts (arbitrary units) [25] of 30. For the same binder, the FL counts (arbitrary units) [26] was 34, the FL-HA signal remaining with antibody (HA Blocking) [27] was 145 and the fluorescence (Binding Titration) (arbitrary fluorescence units) [28] was 92. It also gave a fluorescence (Binding Titration) (arbitrary fluorescence units) [29] of 176, a fluorescence (Fab Binding) [30] of 12 and a fluorescence (Binding Titration) (arbitrary fluorescence units) [31] of 106. For the same binder, the FL counts (arbitrary units) [32] was 9, the % inhibition of HA binding [33] was 48.6% and the fluorescence (Fab Binding) [34] was 9. The fluorescence (Fab Binding) [35] was 34, the % inhibition of HA binding [36] was 11.2% and the % inhibition of HA binding [37] was 16%. The FL-HA signal remaining with antibody (HA Blocking) [38] was 198, the fluorescence (Binding Titration) (arbitrary fluorescence units) [39] was 117 and the fluorescence (Fab Binding) [40] was 7.

B3: HAE-H10 IgG4 (antibody, V domains shown)
VH: EVQLLESGGGLVQPGGSLRLSCAASGFTFSPYLMSWVRQAPGKGLEWVSSIYSSGGLTDYADSVKGRFTISRDNSKNTLYLQMNSLRAEDTAVYHCARDGYYDSSGYEGFDYWGQGTLVTVSS
VL: [about 100 residues left out here]FGQGTKLEIKR
B3 gave an Initial Saturation Conc. [41] of 100 µg/mL, an IC50 [42] of 6.2 µg/mL and an EC50 [43] of 12.5 µg/mL. For the same binder, the Kd [23] was 3450 nM, the Kd (human CD44-Fc (human)) was 2350 nM and the IC50 [44] was 69 nM. For the same binder, the Initial Saturation Conc. [45] was 50 µg/mL.
